Laboratory results taken from patent US20120058977A1, “PHARMACEUTICAL COMPOSITIONS AND METHODS FOR TREATING TUBERCULOSIS” (Rijksuniversiteit Groningen, priority 2009, published 2012).

How the values were obtained:
[1] = tested on: R. erythropolis RG8-37; test: Growth inhibition screening assay, R. erythropolis RG8-37 (glucose mineral agar or liquid medium); format: cell-based, Rhodococcus erythropolis; details: for growth inhibition in mutant strain RG8-37 compared with SQ1: mineral glucose agar plates, 0.01% test compound
[2] = tested on: gene inactivated mutants of R. erythropolis RG8-37; test: Growth of gene inactivated mutants of RG8-37 on MM glucose agar medium with HIL; details: MM glucose agar medium with HIL 100 mg/L
[3] = tested on: wild type M. smegmatis mc^2155; test: Growth inhibition of wild type M. smegmatis mc^2155 (glucose mineral liquid cultures or agar plates); details: for growth inhibition of wild type mc^2155 in glucose mineral liquid cultures: 0.01% test compound, compared with R. erythropolis SQ1
[4] = tested on: wild type Rhodococcus erythropolis SQ1; test: Growth inhibition screening assay, wild type R. erythropolis SQ1 (glucose mineral agar or liquid medium); details: for inhibitory activity / growth inhibition in wild type SQ1 (summary statement): medium format and concentration not stated at the place; for growth inhibition of wild type SQ1 on mineral glucose agar plates: 0.01% (w/v or v/v) test compound
[5] = tested on: 3-ketosteroid 9α-hydroxylase (KSH) activity; details: AD 0.5 g/L; strain RG8-37 in mineral glucose medium

3aα-H-4α(3′-propionic acid)-5α-hydroxy-7aβ-methylhexahydro-1-indanone-δ-lactone [HIL, reference compound]
growth of RG8-37 on glucose agar plates ([1]; HIL 0.01% w/v, after 3 days of incubation): no growth | growth of RG8-37 in liquid glucose mineral media ([1]; HIL 100 mg/l, over a period of 96 hours): unable to grow | growth of strains RG45 (fadE31) and RG46 (echA13) [2]: still inhibited | growth of wild type strain on glucose mineral agar plates ([3]; HIL 200 mg/l, 37° C., after 3 days): confluently grown | time in which wild type SQ1 grew to stationary phase ([4]; liquid glucose mineral media containing HIL 100 mg/l): ≤ 72 h | inhibitory activity / growth inhibition in wild type SQ1 (summary statement) [4]: does not occur

C[C@]12CCCC[C@@H]1CCC2=O [compound I]
growth inhibition in mutant strain RG8-37 compared with SQ1 [1]: even more pronounced | growth inhibition of wild type SQ1 on mineral glucose agar plates [4]: Growth inhibition | inhibitory activity / growth inhibition in wild type SQ1 (summary statement) [4]: show inhibitory activity

C[C@@]12CCCC[C@H]1CC[C@H]2O [(−)-compound II, (−)-(1R,3aS,7aR) 7a-methyl-1H-octahydroinden-1-ol]
growth inhibition of wild type SQ1 in glucose mineral liquid cultures ([4]; 0.01% test compound): did not inhibit the growth | growth yield of wild type SQ1 in glucose mineral liquid cultures ([4]; 0.01% test compound): lower growth yield | inhibitory activity / growth inhibition in wild type SQ1 (summary statement) ([4]; listed as (−)-(1R,3aS,7aR) 7a-methyl-1H-octahydroinden-1-ol): less active enantiomer | inhibitory activity / growth inhibition in wild type SQ1 (summary statement) ([4]; listed as (−)-II): show inhibitory activity

C[C@]12CCCC[C@@H]1CC[C@@H]2O (racemic) [racemic compound II, rac-(1β,3aα,7aβ)-7a-methyl-1H-octahydroinden-1-ol]
growth inhibition in mutant strain RG8-37 compared with SQ1 [1]: even more pronounced | inhibition of 3-ketosteroid 9α-hydroxylase activity [5]: not inhibited | growth inhibition of wild type mc^2155 in glucose mineral liquid cultures [3]: also inhibited by these compounds, but to a much lesser extent | growth inhibition of wild type SQ1 on mineral glucose agar plates [4]: Growth inhibition | growth inhibition of wild type SQ1 on mineral glucose agar plates ([4]; listed as Racemic compound II): strongest inhibition of growth | growth inhibition of wild type SQ1 in glucose mineral liquid cultures ([4]; 0.01% test compound): strong inhibitory effect

C[C@]12CCCC[C@@H]1CCC2=O (racemic) [compound I]
inhibition of 3-ketosteroid 9α-hydroxylase activity [5]: not inhibited

C[C@]12CCCC[C@@H]1CC[C@@H]2O [(+)-compound II, (+)-(1S,3aR,7aS)-7a-methyl-1H-octahydroinden-1-ol]
growth inhibition of wild type SQ1 in glucose mineral liquid cultures ([4]; 0.01% test compound): inhibited growth comparable to racemic compound II | inhibitory activity / growth inhibition in wild type SQ1 (summary statement) [4]: most effective growth inhibition | inhibitory activity / growth inhibition in wild type SQ1 (summary statement) ([4]; listed as (+)-(1S,3aR,7aS)-7a-methyl-1H-octahydroinden-1-ol): active enantiomer | inhibitory activity / growth inhibition in wild type SQ1 (summary statement) ([4]; listed as (+)-(1S,3aR,7aS)-enantiomer): active constituent of racemic compound II | inhibitory activity / growth inhibition in wild type SQ1 (summary statement) ([4]; listed as (+)-II): show inhibitory activity

CC(=O)Oc1ccc(C)c(CC[C@@H]2C(=O)CC[C@]3(C)C(=O)CC[C@@H]23)c1 [compound III]
growth inhibition in mutant strain RG8-37 compared with SQ1 [1]: even more pronounced | growth inhibition of wild type mc^2155 in glucose mineral liquid cultures [3]: also inhibited by these compounds, but to a much lesser extent | growth inhibition of wild type SQ1 on mineral glucose agar plates [4]: Growth inhibition | growth inhibition of wild type SQ1 in glucose mineral liquid cultures ([4]; 0.01% test compound): strong inhibitory effect | inhibitory activity / growth inhibition in wild type SQ1 (summary statement) [4]: show inhibitory activity
